# Experimental data: the supplement of paper PMC3334620
# Over roughly 33,000 sequences, “E-score (-0.5 to 0.5)” has its median near -0.043; the highest 2% begin near 0.37. The list shows a part of the results.
# Target: T1, Upc2 (UniProt Q12151)
# T1 sequence: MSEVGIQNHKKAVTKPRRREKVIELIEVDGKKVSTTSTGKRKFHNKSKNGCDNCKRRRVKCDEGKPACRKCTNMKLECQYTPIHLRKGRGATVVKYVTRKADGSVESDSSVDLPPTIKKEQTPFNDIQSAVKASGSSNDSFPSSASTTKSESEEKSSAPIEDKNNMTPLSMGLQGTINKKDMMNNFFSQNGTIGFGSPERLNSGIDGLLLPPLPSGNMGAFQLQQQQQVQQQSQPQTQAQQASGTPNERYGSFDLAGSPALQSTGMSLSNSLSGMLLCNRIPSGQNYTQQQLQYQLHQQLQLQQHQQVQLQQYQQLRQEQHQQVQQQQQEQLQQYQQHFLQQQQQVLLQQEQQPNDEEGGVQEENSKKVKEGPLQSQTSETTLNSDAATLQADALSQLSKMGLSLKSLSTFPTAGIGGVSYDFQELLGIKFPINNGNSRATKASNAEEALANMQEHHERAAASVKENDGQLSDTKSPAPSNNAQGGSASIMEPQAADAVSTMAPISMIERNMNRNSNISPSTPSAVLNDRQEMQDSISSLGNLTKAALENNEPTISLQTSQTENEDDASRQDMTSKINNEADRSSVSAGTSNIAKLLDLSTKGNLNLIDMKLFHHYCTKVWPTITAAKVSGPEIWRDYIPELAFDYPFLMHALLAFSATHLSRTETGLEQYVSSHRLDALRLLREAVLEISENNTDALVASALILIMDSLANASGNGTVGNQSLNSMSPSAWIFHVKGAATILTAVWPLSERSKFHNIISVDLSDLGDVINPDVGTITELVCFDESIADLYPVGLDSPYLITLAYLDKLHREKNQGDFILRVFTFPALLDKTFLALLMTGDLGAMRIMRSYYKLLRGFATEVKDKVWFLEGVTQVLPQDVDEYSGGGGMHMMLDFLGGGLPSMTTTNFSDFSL
# Experiment: PBM E-score (8-mer binding enrichment) (E-score (-0.5 to 0.5)); higher = stronger / more preferred TF binding; most listed sequences are background and not binding sites
# Settings: protein concentration: 200 nM; construct: GST-full length
# Procedure, shortened: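 Full-length yeast transcription factors or their DNA-binding domains, GST-tagged and expressed with PURExpress, were applied at about 100-200 nM to universal all-10-mer Agilent arrays. These arrays had been made double-stranded by primer extension on fresh or once-stripped slides. Detection used fluorescent anti-GST, normalisation used masliner, and E-scores for ungapped eight-base words pooled with reverse complements came from the Universal PBM Analysis Suite.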
row,Sequence,PBM E-score
1,TCGAAACA,-0.00849
2,CTTCCAGC,-0.303
3,CTATAAGA,0.247
4,GCCCTTAC,-0.112
5,ACCACCAG,-0.0982
6,CAGGGGCC,-0.296
7,ACTCGAGA,0.0109
8,GCGGGCAC,-0.219
9,AGAGGTCG,0.117
10,AGCTTTTC,-0.0374
11,CTTGTAAC,0.132
12,AGGTTACG,0.221
13,CTCGAGTA,0.0834
14,ATGCTTTA,0.0363
15,TCCTGCGA,-0.0343
16,GGCGCGCA,-0.0733
17,CGGAGGTA,-0.0859
18,CTTTTGGC,0.0155
19,AATGCAAC,0.155
20,TAATTCGA,-0.00307
21,ATACTTAA,0.0851
22,CTGACATC,-0.151
23,ATTTCAGC,-0.221
24,CCGCAGTA,-0.174
25,ACATTAGT,-0.0556

row,Sequence,PBM E-score
1,GTAAGCAA,0.025
2,TACGAGGA,0.464
3,AATACTTA,0.0146
4,ACCTGGGA,-0.245
5,CAGTTTAA,0.0775
6,AAGTGGTC,-0.0902
7,CTGCCATC,-0.0599
8,GAGGTACC,-0.0544
9,CGCATCTA,0.134
10,CATGTCCC,-0.0585
11,AAATTATG,-0.0769
12,ACCCGCTA,-0.161
13,AGAAGTAA,-0.109
14,ATTCTGTA,0.0418
15,CGACACCC,-0.0363
16,CGGATTGA,-0.0804
17,AACGTGAC,-0.00267
18,CGGTAGAA,-0.172
19,ATTGACGG,0.0345
20,CCGTTAAG,0.309
21,GATCAGCC,-0.29
22,TGCAATAA,-0.0238
23,AATCAGTG,-0.167
24,AATGATGC,-0.00917
25,AGCAAAAC,-0.0596

row,Sequence,PBM E-score
1,AGTTTGGG,-0.195
2,AGCGGATC,0.0526
3,AGCTATCA,-0.0312
4,GTCCAGAC,-0.0537
5,CAGGGTAG,-0.144
6,AGTCTACG,0.158
7,AGCAACAC,0.00868
8,GGTCCACC,-0.188
9,GTAAGCAC,-0.0922
10,TACAAGAA,0.0389
11,CCGGGCTA,-0.18
12,CTAGTCAC,-0.101
13,GAAAGAAA,0.103
14,GCTACTGA,-0.101
15,CAGTGACC,-0.27
16,CCTGCAAA,-0.0886
17,AACGGTAA,0.278
18,ACTCCCGA,-0.014
19,GTAGGGTA,0.00363
20,AAGGTAGA,-0.111
21,AGATTTAA,-0.0243
22,CACAGGTG,-0.201
23,CTGCCCAA,-0.292
24,GTTGACAA,0.1
25,AACTACCC,-0.259

row,Sequence,PBM E-score
1,ATACGTGC,0.318
2,CTCGAATA,0.206
3,GAGTTGCA,-0.261
4,CCGCACAA,0.0872
5,ATGCACCG,-0.146
6,AAAGAATT,-0.0689
7,CTAAGGCA,-0.252
8,ACACGCGC,-0.0822
9,AATCGTAG,0.241
10,CGTCCCAC,-0.0799
11,CCTCGCTC,0.31
12,TGGTTCAA,0.018
13,ACGTGACT,-0.0376
14,CCTAGCAA,-0.244
15,GACACGAC,0.16
16,CAAAGAGG,-0.306
17,GATTCATA,-0.0732
18,AATCGACT,-0.0529
19,CAATAGCC,-0.128
20,CTAGGAGC,-0.192
21,GCCCCCAA,-0.238
22,ACATTGGT,-0.232
23,GGTAGAAC,-0.0156
24,ACTATAAG,0.219
25,GAGGTGGC,-0.22

row,Sequence,PBM E-score
1,CGACCGCA,0.174
2,AATGACTA,-0.0693
3,AAGATGAT,-0.0179
4,ATGTGGGG,-0.142
5,AGCTGTAG,-0.2
6,CTCCCGTA,0.333
7,AGCCGAAA,-0.0413
8,CGCTGACA,-0.232
9,GGCTTGCA,-0.13
10,GTGCTAAC,-0.0899
11,AATTTACC,0.117
12,TGGATTAA,-0.162
13,ACATAGAG,-0.149
14,CAGGAAGA,-0.252
15,ACGTCTGA,0.0587
16,ACAATGCT,-0.119
17,CTGACACC,-0.236
18,ACGGACCA,0.213
19,ATCATATA,0.0507
20,CCACAATC,-0.132
21,CTCCTATA,-0.0688
22,CGTGCCTC,0.0474
23,GAACTGAA,0.179
24,TAAGGACA,0.0801
25,GCACTTAC,-0.0833

row,Sequence,PBM E-score
1,AGTCCGGC,-0.204
2,CCAACTGA,-0.0746
3,CGTCATAA,0.0582
4,AAACATGT,0.0475
5,AAATCCAC,-0.112
6,GTTGCACA,-0.0557
7,CAAAATTA,0.0503
8,CCCCAAGG,-0.378
9,CTGCTTCA,-0.325
10,ACGGAATA,0.0564
11,ACGCCGGA,0.0844
12,CCCGTCGC,0.0724
13,AAACACCC,-0.0301
14,ATTCACAG,-0.0954
15,ATGAGAGG,-0.213
16,AGCCCGTA,0.321
17,ACGAAGAA,0.343
18,AGAGCTTG,-0.0473
19,GTACGATA,0.445
20,AACGTTTA,0.359
21,GCCACTCC,0.00823
22,CCCGTCGA,-0.024
23,GATAAAAA,-0.0128
24,AAAGTGTC,-0.00791
25,ACTATGGA,-0.0797

row,Sequence,PBM E-score
1,AGACTTTG,-0.0679
2,AGGGGGGG,-0.318
3,ACTGCTAG,-0.233
4,AATTTTGA,0.111
5,GATCAGTA,0.14
6,CCAAGGAA,-0.158
7,CGAATGAA,0.117
8,CTTTTGCC,-0.115
9,GGACAGCA,-0.173
10,ATTTCCTG,-0.0945
11,GAGACCCC,-0.187
12,ATTTTTTC,0.0622
13,ATATACTG,0.0777
14,AGGCAAGC,-0.129
15,CCAAGTAG,-0.168
16,CCTGGTCG,0.101
17,CGAGATTC,0.177
18,CGTCCCTA,-0.125
19,CTGGCTGC,-0.15
20,CATGATAC,0.147
21,GACACGCA,0.0514
22,ACTAAAAG,0.0931
